Among all 310,000 compounds or so, about 14,000 (4.5%) showed an effect of 50% or more. Effects have a minus sign here. Some of the results follow. Where a SMILES comes first, the peptide text is derived from it.
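Also: peak tail current of the secondary pulse compared with the same well before compound.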

The target of the experiment is human ether-à-go-go-related gene (hERG) potassium channel (human, UniProt Q12809). Kind of experiment: primary screen, population patch clamp on CHO cells stably expressing hERG.
Sequence of human ether-à-go-go-related gene (hERG) potassium channel (Q12809 whole entry, looked up): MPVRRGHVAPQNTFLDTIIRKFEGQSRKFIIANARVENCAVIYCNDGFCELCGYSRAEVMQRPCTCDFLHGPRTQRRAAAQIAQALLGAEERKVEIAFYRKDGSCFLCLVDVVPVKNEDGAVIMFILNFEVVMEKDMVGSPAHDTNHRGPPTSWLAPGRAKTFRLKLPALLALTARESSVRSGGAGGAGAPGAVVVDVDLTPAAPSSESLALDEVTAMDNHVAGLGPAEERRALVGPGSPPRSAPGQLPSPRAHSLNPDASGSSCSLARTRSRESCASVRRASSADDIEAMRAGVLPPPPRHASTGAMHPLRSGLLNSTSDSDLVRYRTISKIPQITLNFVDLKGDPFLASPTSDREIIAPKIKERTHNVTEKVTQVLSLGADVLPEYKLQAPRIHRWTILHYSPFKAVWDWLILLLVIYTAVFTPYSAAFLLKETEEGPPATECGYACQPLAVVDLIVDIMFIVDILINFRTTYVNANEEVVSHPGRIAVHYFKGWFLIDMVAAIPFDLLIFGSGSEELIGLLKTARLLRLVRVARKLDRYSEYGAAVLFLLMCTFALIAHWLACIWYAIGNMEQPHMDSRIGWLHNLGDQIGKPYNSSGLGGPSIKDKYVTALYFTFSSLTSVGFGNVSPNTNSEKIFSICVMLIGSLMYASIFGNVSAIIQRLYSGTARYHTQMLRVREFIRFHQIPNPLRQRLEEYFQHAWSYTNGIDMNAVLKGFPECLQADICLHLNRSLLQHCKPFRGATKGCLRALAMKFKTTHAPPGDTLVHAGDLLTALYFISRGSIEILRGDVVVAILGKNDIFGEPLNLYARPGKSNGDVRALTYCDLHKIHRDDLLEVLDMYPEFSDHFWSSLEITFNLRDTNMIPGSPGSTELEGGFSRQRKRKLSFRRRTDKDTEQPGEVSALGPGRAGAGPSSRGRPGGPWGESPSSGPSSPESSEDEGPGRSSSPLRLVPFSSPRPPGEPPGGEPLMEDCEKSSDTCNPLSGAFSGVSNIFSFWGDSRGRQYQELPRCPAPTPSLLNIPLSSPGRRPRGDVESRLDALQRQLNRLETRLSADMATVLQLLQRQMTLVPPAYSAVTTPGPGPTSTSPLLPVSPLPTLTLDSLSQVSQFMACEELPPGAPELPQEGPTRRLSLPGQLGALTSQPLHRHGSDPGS
Take `CC1CCN(CCc2nc3cc(NC(=O)COc4ccc(Cl)cc4)ccc3n2C)CC1`: the “hERG current change (%, negative = inhibition) at 10uM” value is on record as -74.7%.
As for `O=C(CCCCCN1C(=O)CCC1=O)Nc1ccc(Cl)c(C(F)(F)F)c1`, the figure is -58.7%; as for `O=C(CCNC(=O)c1ccccc1Cl)NCCCSc1ccccc1`, -8.64%.
Consider `Cc1ccc(S(=O)(=O)CCC(=O)OCC(=O)N(C)CC(=O)Nc2ccc(F)cc2)cc1`, for which the “hERG current change (%, negative = inhibition) at 10uM” value is listed as -21.5%.
As for `O=C(CCn1c(=O)[nH]c2ccccc2c1=O)N1CCN(c2cccc(C(F)(F)F)c2)CC1`, the figure is -43%.
As for `CCON1C(=O)C(C)(C)N(OCC)C(=O)C1(C)C`, the figure is 13.2%; as for `S=C(NC1CCCCC1)N1CCn2cccc2C1c1ccncc1` (centres unmarked), -10.1%.
As for `Cc1c(OCC(=O)N2CCC(C(N)=O)CC2)ccc2c3c(c(=O)oc12)CCC3`, the figure is 7.25%; as for `CCCCC(c1nnnn1CS(=O)(=O)c1ccc(C)cc1)N1CCN(c2ccccc2)CC1.Cl` (centres unmarked), 12.5%; as for `Cn1c(=O)c(=O)n(C)c2cc(N3CCOCC3)c(NS(=O)(=O)c3ccc(F)c(Cl)c3)cc21`, -16.6%.
Consider `CCCCc1c(O)nc(SCC(=O)N2CCOCC2)n(-c2ccccc2C)c1=O`, for which the “hERG current change (%, negative = inhibition) at 10uM” value was found to be 18.8%.
As for `O=C(Nc1ccccc1)C1=C[C@@H](c2csc3ccccc23)C[C@@H](OCc2ccc(CO)cc2)O1`, the figure is 14.8%; as for `CCOC(=O)c1ccc(N=C2SC(C(=O)NC)CC(=O)N2CCc2ccccc2)cc1` (centres unmarked), -0.909%; as for `CCn1cc(C(=O)NCCCOC)c(=O)c2cc(S(=O)(=O)N(C)C3CCCCC3)ccc21`, -23%.
With `COC(=O)c1cc(S(=O)(=O)NCCc2ccc(Cl)cc2)c[nH]1`, the “hERG current change (%, negative = inhibition) at 10uM” value is -3.4%.
As for `C(=N\N1CCN(Cc2cccc3ccccc23)CC1)/c1cccnc1`, the “hERG current change (%, negative = inhibition) at 10uM” value is -1.95%.
In the case of `CCn1c(C(=O)N2CCCC(C(=O)NCCCc3ccccc3)C2)cc2sccc21` (centres unmarked), the “hERG current change (%, negative = inhibition) at 10uM” value is listed as -36.5%.
For the molecule `CCC(=O)N(CCc1ccccc1)Cc1cc2cc3c(cc2[nH]c1=O)OCO3`, the “hERG current change (%, negative = inhibition) at 10uM” value is on record as -2.97%.
As for `COc1cccc(/C=N/Nc2cc(C)nc(-c3ccccc3O)n2)c1O`, the figure is -0.921%; as for `CCOC(=O)c1sc2nc(C)nc(NCc3ccccc3)c2c1C`, 9.35%.
As for `Cc1ccc(S(=O)(=O)N[C@H](C(=O)Oc2ccc3c(C(F)(F)F)cc(=O)oc3c2)c2ccccc2)cc1`, the figure is 4.99%; as for `CCN(CCCNC(=O)CN1C(=O)COc2ccccc21)c1cccc(C)c1`, -11.3%.
As for `COC(=O)[C@H](Cc1ccccc1)NC(=O)[C@@H](N)CC(=O)O` (H-Asp-Phe-OMe), the figure is 2.13%; as for `COc1ccc(C(=O)NNC(=O)Nc2ccc(Cl)cc2)cc1`, 11%.
In the case of `COc1ccc(OC)c(NC(=S)NCCC(c2ccccc2)c2ccccc2)c1`, the “hERG current change (%, negative = inhibition) at 10uM” value is on record as 1.73%.
Take `COc1cccc(NC(=O)Cn2nnc(-c3ccccc3N)n2)c1`: the “hERG current change (%, negative = inhibition) at 10uM” value is -6.36%.
As for `CC1(C2CC(C(F)(F)F)n3nc(C(=O)O)cc3N2)CC1` (centres unmarked), the figure is 22.9%.
As for `CN1C(=O)Cn2c1nc1ccccc12`, the figure is 7.66%; as for `CCCCCC(=O)NC(=S)Nc1ccc(N2CCCCC2)c(Cl)c1`, 12%.
As for `CCOc1cc(/C=N/N=C2/NC(=O)C(CC(=O)O)S2)ccc1OCc1ccccc1Cl` (centres unmarked), the figure is 10%; as for `Cc1nc(N)nc(Nc2ccc(Cl)cc2)c1Br`, -7.99%.
As to `COc1ccc(-c2n[nH]c(C)c2-c2ccc(Cl)cc2)c(O)c1`, the “hERG current change (%, negative = inhibition) at 10uM” value came to 9.37%.
With `On1c(-c2ccccc2)nc2ccc(Cl)cc21`, the “hERG current change (%, negative = inhibition) at 10uM” value was -3.98%.
`O=C(O)c1nc(N2CCCCC2)ncc1Cl`: the “hERG current change (%, negative = inhibition) at 10uM” value is recorded as 13.6%.
As for `CC(=O)Nc1ccc(S(=O)(=O)N2CCN(S(=O)(=O)c3ccc(NC(C)=O)cc3)CC2)cc1`, the figure is 16.2%; as for `C=CCCCOc1ccc(C(=O)O)cc1`, 10.2%; as for `CCCCn1nnnc1NCc1cccc(OC)c1OC`, -4.34%.
As for `O=C(NCCC1=CCCCC1)C1CCN(C(=O)Cc2ccccc2)CC1`, the figure is -5.84%; as for `Cc1ccc(C)c(S(=O)(=O)N2CCN(C(=O)c3cc(-c4cccs4)nn3-c3ccccc3)CC2)c1`, 5.54%; as for `COc1cc(NC(=O)c2cc3nc(C4CC4)cc(C(F)(F)F)n3n2)c(OC)cc1Cl`, 0.745%.
As for `CC(=O)Oc1ccc(-c2nc(-c3cccnc3)no2)cc1`, the figure is 14.2%; as for `COC(=O)Cc1cc(=O)n2c(nc3ccccc32)[nH]1`, 9.25%; as for `COc1ccc(OC)c(/C=N/NC(=O)c2cc3c(OC)cccc3[nH]2)c1`, -3.52%.
Regarding `COc1ccc(Nc2nc(N)nc(CSc3nncn3C)n2)cc1`, the “hERG current change (%, negative = inhibition) at 10uM” value is on record as 20.1%.
As for `COCCNC(=S)N1CCC(C(=O)c2ccc(C)cc2)CC1`, the figure is -2.77%; as for `Cc1ccc(C(NC(=O)N2CCOCC2)C(Cl)Cl)cc1F` (centres unmarked), 2.35%.
For the molecule `CCCCNc1c([N+](=O)[O-])cc(C(=O)O)cc1[N+](=O)[O-]`, the “hERG current change (%, negative = inhibition) at 10uM” value is given as -9.84%.
In the case of `O=C(Nc1cccnc1)c1sc2cccc(F)c2c1Cl`, the “hERG current change (%, negative = inhibition) at 10uM” value was 1.13%.
Turning to `O=C(Nc1ccccc1)N1CCN(Cc2ccc(Cl)cc2)CC1`, the “hERG current change (%, negative = inhibition) at 10uM” value is given as -33.8%.
Turning to `Cc1ccc(S(=O)(=O)Oc2ccc(/C=C(/NC(=O)c3ccccc3)C(=O)NC(C)C(=O)O)cc2)cc1` (centres unmarked), the “hERG current change (%, negative = inhibition) at 10uM” value is reported as 9.72%.
`Cc1ccc(S(=O)(=O)N2CCCC2)cc1C(=O)Nc1ccc(-n2cnnn2)cc1`: the “hERG current change (%, negative = inhibition) at 10uM” value is given as -23.9%.
`COc1ccc(NC(=O)CSc2n[nH]c(N)n2)c([N+](=O)[O-])c1`: the “hERG current change (%, negative = inhibition) at 10uM” value is given as 22%.
As for `COc1ccc(C(CC(=O)O)NC(=O)C2CCCCC2)cc1` (centres unmarked), the figure is 4.81%.
For the molecule `O=C(CCSc1nc(-c2ccco2)cc(C(F)(F)F)n1)NCc1ccccn1`, the “hERG current change (%, negative = inhibition) at 10uM” value is on record as -22.5%.
Consider `CCN(CC)CCCNc1nc(C)cc(COC)c1C#N`, for which the “hERG current change (%, negative = inhibition) at 10uM” value is listed as -28.5%.
As for `CCOC(=O)c1c(-n2c(C)cc(C=C3C(=O)NC(=S)NC3=O)c2C)sc2c1CCCC2`, the figure is -5.55%.

The values are drawn from paper PMC4336329 (PLoS ONE, 2015).
